Results taken from the supplement of paper PMC11417369.
± gives the standard deviation of the averaged measurements. This is one part of the list.

Each sequence was assayed on PfAP2-G AP2 domain (GST-tagged) (assay: gcPBM binding intensity (ln(normalized median fluorescence intensity)); higher = stronger DNA binding).
How it was run: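 Binding intensity is defined as the maximum Masliner-normalised natural-log median intensity across replicate spots for either probe orientation. It was measured on an Agilent 4 × 180k array of primer-extended double-stranded 36-bp intergenic genomic probes and negative controls, to which GST-tagged P. falciparum DNA-binding domains made in E. coli were applied for 1 h in 1× PBS with 1% milk, 0.2 mg/ml BSA, 0.5% salmon testes DNA and 0.03% Triton X-100. Detection was by Alexa488 anti-GST antibody and scanning at 488 nm.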

Row | Sequence | gcPBM binding intensity (ln)
1 | GTGTAATATATTTTTCGTACATATTATATATATATA [XGTACX_site1675] | 11 ± 0.69
2 | TTATACACCTTTCATTGTACATATAATTTATATTCT [XGTACX_site8685] | 11.2 ± 0.59
3 | TATATATATATATATTGTACAAAATATTTATATGTT [XGTACX_site436] | 10.7 ± 0.26
4 | TAATTAATTTATTAGTTGCACTGTACCATTAGAGTA | 11 ± 0.87
5 | GTTCATAAATTAAACACACACACACCCCTGGATACC [CACACA_site3331] | 10.8 ± 0.58
6 | TCTTCTAATTTACCTACACACAGGAGATATATAAAT [CACACA_site6276] | 9.97 ± 0.042
7 | TATATTACTTTGTGTTGTACGGAAATATATATATAT [XGTACX_site4309] | 11.3 ± 0.94
8 | ATATTTTATTTAATTACACACAATATTGCAATTTGT [CACACA_site669] | 10.09 ± 0.021
9 | AAGGATTTTTTATACACACACTAACTAATGTATATA [CACACA_site7163] | 10.03 ± 0.042
10 | TAATACCATAACAAGTGTACATAAATAATTATTGTA [XGTACX_site4949] | 11.5 ± 0.81
11 | AATATTCAATATATATATATATATAATATTAATATA [GTGCAC_negctrl_site571] | 9.515 ± 0.021
12 | ATAGCACATTTTTAAGCACACGTTTATTATATATAT [CACACA_site6084] | 10.3 ± 0.24
13 | CAAAAATATATTTTTTGTACACAAAAAAAAAATAAA [XGTACX_site5229] | 11.4 ± 0.98
14 | ATAATTATTCTTATGGTGCACTGAATATACATGTTG [GTGCAC_site9760] | 10.5 ± 0.28
15 | AAAACTATTAAATGTAGTACATAATTATTGAAATAA [XGTACX_site8716] | 11.6 ± 0.91
16 | AAATACATATCATGTAGTACATATATATGTAGGTTA [XGTACX_site5392] | 11.3 ± 0.85
17 | ACTTTACGAATTAAGAGTACTTATTTAAGGAACACT [XGTACX_site7919] | 11.4 ± 0.9
18 | TGTTGTATTTTTACAACACACATTTAATCCATTTAA [CACACA_site1507] | 10 ± 0.27
19 | CTTATATATTGGGATAGTACTTTTAACTAAATAGAA [XGTACX_site5900] | 11.1 ± 0.67
20 | TTTGAAAAGTTGAAATGTACACATTTACACATATTT [XGTACX_site1641] | 11.2 ± 0.86
21 | TTTTTATTGAGATACTTATATAATTTTATGAATAAA [XGTACX_negctrl_site311] | 10 ± 0.3
22 | TTTTTTTGCTCTTTTTATATATATATATATATATAT [GTGCAC_negctrl_site70] | 10.1 ± 0.33

Row | Sequence | gcPBM binding intensity (ln)
23 | TATATATATAAAATATGTACATAAAATTATTTATTT [XGTACX_site7666] | 11.4 ± 0.78
24 | AAAGTTTAAATGAGAAGTACAAATTTTTGTTTTTAT [XGTACX_site1844] | 11.1 ± 0.55
25 | ATGTTAACTAAATGTACACACCTATGTTGATGTAAC [CACACA_site5073] | 11.3 ± 0.97
26 | GTAATACACATATAATGTACTCATAAATATATTTAT [XGTACX_site4041] | 11.4 ± 0.98
27 | TCATAGGAGAACTTTTGTACAGATTTTTCTTTTTTT [XGTACX_site2853] | 10.7 ± 0.28
28 | ATATAAAGTATGTTAGTGCACTTTTTTTTTTTTTTT [GTGCAC_site9419] | 10.8 ± 0.59
29 | CAAAGAACTTATAGGGTGCTTTACTTATAAGTAAAT [GTGCAC_site9579] | 10.06 ± 0.064
30 | AATTTTATATATATATGTACATATTTATATGCTTAT [XGTACX_site8180] | 11.1 ± 0.66
31 | AATATAAGTGTACATACACACTTTACAATATCATAT [CACACA_site5634] | 11.5 ± 1
32 | TTTCTATATCTTTCAACACACAAATTTTTTTTTCCA [CACACA_site108] | 9.85 ± 0.14
33 | ACATACATACCCCCACGTACGTACCGAAACACCACC [XGTACX_site1982] | 11.5 ± 0.74
34 | GTGGTTGTAATGGTGGTGCATATTGTATATTATGTT | 10.9 ± 0.58
35 | GTTTATTCTTTTTATACACACCTTATTTGATTAACA [CACACA_site4567] | 10.06 ± 0.049
36 | TATACATAGAAACACACACACATATATATATATATA [CACACA_site2248] | 10.1 ± 0.37
37 | TTTATTTATGTAGATACACACCCATGTTATATGGAG [CACACA_site9144] | 10.1 ± 0.11
38 | TTCTAATATTTTTGCACACTAAACAATAAATTTCCT [CACACA_site3944] | 10.2 ± 0.23
39 | TGTGAATAAATAAGCACACATAAACACATATATAAA [CACACA_site6114] | 10.075 ± 0.007
40 | TTAAAAGAAAAAATATGTACATATATTATATATATC [XGTACX_site7009] | 11.2 ± 0.61
41 | TTACTACTATATTATACACACATATATATATATATA [CACACA_site2621] | 10.2 ± 0.4
42 | GCAACATTCTAAGACACACACACACCCATATATATA [CACACA_site1053] | 10.2 ± 0.26
43 | AATGATGTCATAGGGGGTACACATAAATGTGAATGT [XGTACX_site6745] | 11.5 ± 0.95
44 | ATATTAATAATATATACACACATAAGTATTGTATAT [CACACA_site4095] | 9.905 ± 0.064
